For four molecules, cell count results are on record in the supplement of paper PMC4604168 (melanoma cell lines).

Holding throughout (assay): cell count relative to DMSO control; melanoma cells; higher = more viable cells
Conditions in all cases: library dose: standard library concentration; 72 h

Experiment [1] concerns G361.
Experiment [2] deals with IPC-298.
For experiment [3], the system named is IST-MEL1.
Experiment [4] concerns LB2518-MEL.
For experiment [5], the system named is LOXIMVI.
The subject of experiment [6] is MEL-HO.
For experiment [7], the system named is MZ2-MEL.
For experiment [8], the system named is MeWo.
Experiment [9] relates to RPMI7951.
For experiment [10], the system named is RVH-421.
Experiment [11] has as its system SkMel28.
The subject of experiment [12] is SkMel2.
The subject of experiment [13] is SkMel30.
Experiment [14] relates to SkMel5.
The subject of experiment [15] is UACC257.
The subject of experiment [16] is UACC62.
The test system of experiment [17] is WM115.
The test system of experiment [18] is WM1716.
Experiment [19] concerns WM1745.
Experiment [20] deals with WM3526.

The list shows a part of the results. Repeats are few or missing, and single values can be far off.
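Note: cells treated in 1,536-well plates, then fixed and DAPI-stained, with nuclei counted from automated high-throughput microscope images.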

As for `CN(C)S(=O)(=O)c1ccc2c(c1)/C(=C/c1cc3c([nH]1)CCCC3)C(=O)N2` + O=C(Oc1ccc([N+](=O)[O-])cc1)N1CCC(C(O)(c2ccc3c(c2)OCO3)c2ccc3c(c2)OCO3)CC1 [JZL184] (first compound 2 µM, partner dose 5 µM), the cell count was 75.9% in [1]; 61.8% in experiment [2]; 77.6% in [3]; 75.2% in [4]; 83.3% in experiment [5]; 81.9% in [6]. In addition, the cell count in [7] turned out to be 61.5%; in [8] it was 53.1%; in experiment [9], 24.5%; in experiment [10], 76.6%; in experiment [11], 48.4%; in [12], 68.3%. Further, the cell count in [13] stood at 66.4%; in [14], 52.9%; in experiment [15], 60.9%; in [16] it was 49.9%; in experiment [17] it was 40.5%; in [18], 45.4%. The cell count in experiment [19] is 42.2%; in [20] it was 53.4%.
Regarding `Cn1nnc2c(C(N)=O)ncn2c1=O` [temozolomide] + O=C(Oc1ccc([N+](=O)[O-])cc1)N1CCC(C(O)(c2ccc3c(c2)OCO3)c2ccc3c(c2)OCO3)CC1 [JZL184] (first compound 10 µM, partner dose 5 µM), the cell count in [1] was 103%; in experiment [2] it was 74.2%; in [3], 100%; in experiment [4] it was 62.6%; in experiment [5] it was 93.6%; in experiment [6], 97.3%. For the same molecule, the cell count worked out at 79.1% in experiment [7]; 106% in [8]; 102% in experiment [9]; 97.4% in experiment [10]; 34% in [11]; 112% in experiment [12]. The cell count in experiment [13] is 56.8%; in experiment [14] it was 103%; in experiment [15], 104%; in experiment [16], 55.4%; in experiment [17], 86%; in experiment [18], 52.3%. For the same molecule, the figures for the cell count in experiment [19] and in experiment [20] were 99.7% and 89.3%, respectively.
Take `Cc1cc(Nc2cc(N3CCN(C)CC3)nc(/C=C/c3ccccc3)n2)n[nH]1` + N.N.[Cl][Pt][Cl] [cisplatin] (first compound 0.2 µM, partner dose 8 µM): the cell count in experiment [1] is 107%; in [2] it was 94.8%; in [3] it was 112%; in [4], 85.2%; in experiment [5], 79.2%; in experiment [6] it was 104%. Further, the cell count in [7] worked out at 116%; in experiment [8], 105%; in experiment [9], 91.2%; in experiment [10] it was 88.8%; in experiment [11] it was 111%; in [12], 97.4%. The cell count was determined as 109% in [13]; 79.8% in experiment [14]; 75.2% in experiment [15]; 101% in experiment [16]; 101% in [17]; 88.6% in experiment [18]. Besides, the values for the cell count in experiment [19] and in experiment [20] were 94.7% and 118%, respectively.
For `N#Cc1c(O)c2c(-c3ccc(-c4ccccc4O)cc3)csc2[nH]c1=O` + O=C(Oc1ccc([N+](=O)[O-])cc1)N1CCC(C(O)(c2ccc3c(c2)OCO3)c2ccc3c(c2)OCO3)CC1 [JZL184] (first compound 10 µM, partner dose 5 µM), the cell count in experiment [1] amounted to 107%; in experiment [2], 109%; in [3], 106%; in experiment [4] it was 144%; in experiment [5], 87.2%; in experiment [6], 105%. In addition, the cell count was 110% in experiment [7]; 92.1% in [8]; 112% in experiment [9]; 107% in [10]; 138% in experiment [11]; 110% in experiment [12]. Moreover, the cell count in [13] came out at 79.3%; in [14] it was 82.5%; in experiment [15] it was 108%; in experiment [16], 97.9%; in experiment [17], 88.6%; in experiment [18] it was 108%. Further, the cell count in experiment [19] was found to be 108%; in experiment [20], 83%.
